Test results: PubChem BioAssay AID1963576 (National Center for Advancing Translational Sciences (NCATS), 2024)
The campaign covered roughly 46,000 compounds. About 60 (0.1%) were called active. Roughly 3% stayed inconclusive and do not appear here. Calls follow the shape of the dose curve; as a rule, active = well fitted inhibition curve with a large enough effect; inconclusive = small, poorly fitted or top-dose-only effect; inactive = no such curve, though single readings can be large or run the other way. The list shows a part of the results.

assay: Primary qHTS assay for Inhibitors of ovarian cancer metastasis using an organotypic tumor microenvironment (TME) model.; also: nearly all actives have a fitted effect of over 65% in size;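 as to activity change, negative = inhibition: plate controls were DMSO wells for no effect and tomatine positive control wells for full effect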; settings: SKOV3ip1-GFP adhesion/invasion on 3D omental model, fluorescence; series mostly up to 45.8 µM; activity change, negative = inhibition: at the top concentration
Procedure, shortened: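 Primary human omental fibroblast/mesothelial 3D culture pre-formed 48 h. SKOV3ip1-GFP cells added with compounds (0.36-46 umol/L), incubated 2 h RT/16 h 37 C, fixed; GFP cells quantified at 488/509 nm.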

outcome, inactive:
CCn1cc(C(=O)N2CCN(c3cccc(C(F)(F)F)c3)CC2)c2cc(OC)c(OC)cc2c1=O, COc1ccccc1-c1cc2nc(C)c(CCC(=O)Nc3ccc(Br)c(C)c3)c(C)n2n1, O=C(NC1(C(F)(F)F)C(=O)Nc2c1c(=O)[nH]c(=O)n2CCc1ccccc1)c1ccc(Cl)cc1Cl (stereo not given), Cc1cc(C)cc(NC(=O)CCS(=O)(=O)c2cc3c4c(c2)CCN4C(=O)CC3)c1, COC(=O)c1nnn(CC(=O)NC(=O)Nc2cccc(C)c2C)c1C(=O)OC, CCOc1cc(-c2nnc(SCC(=O)Nc3ccc(F)c(F)c3)nc2-c2ccc(OC)c(OCC)c2)ccc1OC, CC(=O)N1CCc2c(sc3c2c(=O)n(-c2ccccc2)c(=O)n3CC(=O)Nc2cccc(C)c2)C1, Cc1c(C(=O)OC2CCCC2)[nH]c2c1C(=O)CC(c1ccc(Cl)cc1)C2 (stereo not given), COc1ccccc1CNC(=O)CCC1N=C2c3ccccc3N=C(SCc3cccc(Cl)c3)N2C1=O (stereo not given)

Activity change, negative = inhibition, inactive:
CCc1ccc(OC(C)C(=O)N2CCC(c3nc4ccccc4s3)CC2)cc1 (stereo not given) -9.37%, Cc1ccc(N2CC(NC(=O)Cc3cccs3)CC2=O)cc1C (stereo not given) 6.31%, Cc1nc(N2C(=O)c3oc4ccccc4c(=O)c3C2c2cccc(OCCC(C)C)c2)sc1C (stereo not given) 2.78%, CCOC(=O)N1CCc2c(sc(NCc3cccc(F)c3)c2C(=O)Nc2ccccc2OCC)C1 -0.344%, CCOc1ccc(-c2nonc2NC(=O)c2oc3ccc(Br)cc3c2C)cc1 -3.82%, O=C(CSc1nnc(-c2ccccc2)c(-c2ccccc2)n1)NC1CCCCC1 -2.73%, CCOc1ccc(/C=C(\C#N)c2nc3ccccc3c(=O)[nH]2)cc1OC 7.57%, CCOc1ccccc1NC(=O)C1CCCN(S(=O)(=O)c2c(C)[nH]c(=O)[nH]c2=O)C1 (stereo not given) -7.51%, COc1ccc2c(c1)CCc1c(C(=O)Nc3ccc(F)c(Cl)c3)noc1-2 9.86%, CCc1nc2ccc(C(=O)N3CCN(c4ccccc4)CC3)cc2nc1CC 12.1%, O=C(O)c1cn(-c2ccc(F)cc2)c2cc(N3CCNCC3)c(F)cc2c1=O -7.03%, O=C(Nc1cccc(-c2nc3ccccc3o2)c1)c1ccc(-c2ccc(Br)cc2)o1 3.05%, CCC(=O)Nc1nnc(SCc2cc(=O)c3cc(C)ccc3[nH]2)s1 -1.01%, COc1ccc(S(=O)(=O)N(CCc2ccccc2)CC(=O)Nc2ccc(C)c(C)c2)cc1OC 0.13%, CCOc1ccc(CNS(=O)(=O)c2c(C(=O)N3CCC(C)CC3)c(C)n(C)c2C)cc1OC 5.58%, O=S(=O)(Nc1ccc(-c2ccc(N3CCCC3)nn2)cc1)c1ccc(Cl)cc1 -4.55%
